Read-outs that look alike come from different tables or passages of the source.
Target: human CB2 receptor (hCB2) (Homo sapiens, UniProt P34972)
Experiment: cell-based
Assay type: cell-based

Chain of human CB2 receptor (hCB2) (P34972 whole entry): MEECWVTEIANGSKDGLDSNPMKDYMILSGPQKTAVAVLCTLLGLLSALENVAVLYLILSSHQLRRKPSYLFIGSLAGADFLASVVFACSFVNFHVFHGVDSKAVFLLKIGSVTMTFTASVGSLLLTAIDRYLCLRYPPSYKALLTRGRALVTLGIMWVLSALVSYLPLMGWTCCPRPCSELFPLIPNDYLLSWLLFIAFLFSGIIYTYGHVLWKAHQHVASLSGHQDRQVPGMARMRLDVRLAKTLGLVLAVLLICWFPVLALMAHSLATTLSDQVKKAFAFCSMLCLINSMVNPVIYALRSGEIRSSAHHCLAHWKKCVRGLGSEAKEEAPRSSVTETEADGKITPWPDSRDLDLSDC

CNC(=O)[C@@H](NC(=O)c1nc(-c2ccc(C(C)(C)C)cc2)n2c1CN(C)CCC2)C(C)(C)C [Compound 414, (S)-3-(4-tert-butylphenyl)-N-(3,3-dimethyl-1-(methylamino)-1-oxobutan-2-yl)-8-methyl-6,7,8,9-tetrahydro-5H-imidazo[1,5-a][1,4]diazepine-1-carboxamide]
EC50: > 10000 nM

CCS(=O)(=O)N1CCn2c(-c3ccccc3)nc(C(=O)NCC3CCOCC3)c2C1 [Compound 117, 7-(ethylsulfonyl)-3-phenyl-N-((tetrahydro-2H-pyran-4-yl)methyl)-5,6,7,8-tetrahydroimidazo[1,5-a]pyrazine-1-carboxamide]
EC50 (groups >100 nM-10 μM and >10 μM, cAMP, CHO-K1 hCB2, read-out: EC50 HCB2): > 10000 nM
